This is one part of the list.

T1: UNK ZnF1-3 (human, UniProt Q9C0B0 31-174)
T1 sequence: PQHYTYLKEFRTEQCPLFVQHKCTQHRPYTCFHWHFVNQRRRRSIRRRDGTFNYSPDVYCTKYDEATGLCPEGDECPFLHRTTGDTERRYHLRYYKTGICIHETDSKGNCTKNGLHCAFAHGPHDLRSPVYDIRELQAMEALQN

B1: chr11:58768410:58768411:+_ENSMUSG00000078851_ENSMUST00000108817|mus_mus|motif|central (ssRNA)
RNA: GGGAGUUCUACAGUCCGACGAUCCUUCUUAUUGUCGCGGGCCGCAUUACCAGCCAAUUCCAGGAUCUCAGCAGUCAGAUAUUCGGGCACAGCCGCCAGGUACACCGGGGCACCAGCGCCGACCCGCUCCGAAUAAUUACCCUUCAACAGAGGAUUGAGCAUCA
B2: chr11:29608318:29608319:+_ENSMUSG00000020458_ENSMUST00000102843|mus_mus|FALSE|FALSE (ssRNA)
RNA: GGGAGUUCUACAGUCCGACGAUCUAUCUCAAUGGGAGAUGAAUCGGAAAAUGUUUCACUUUCUUUCAUUUUGUCUUCCUUAGAAGAAAGUAAGUCAUCAUUGGAAUAAAUUGCAGUAUUAAACUCUUCCAUUUGCAAAGAAAUCAACAGAGGAUUGAGCAUCA
B3: chr2:85280848:85280849:+_ENSG00000176407_ENST00000409785|hu_mus|FALSE|FALSE (ssRNA)
RNA: GGGAGUUCUACAGUCCGACGAUCUCAUGCAGUAGUUAGGUAAACCAUCCAAGCAGUUUUUAUUCAUUAAUAUUCAUAAAUACACACAGCAGCUUCAUUAGAGAUUUCAAUUUUCCUCUUCAGUUUGAAUGUGGAGUAUUAGGACAACAGAGGAUUGAGCAUCA
B4: 60031836_60038361_1643_CDS_ENSMUSG00000041040_ENSMUST00000036540|mouse|control|control (ssRNA)
RNA: GGGAGUUCUACAGUCCGACGAUCUGGUUUGAGGAUACUCACGAGGCAGAAAGCAGAGCCACUUUUAGGAAUGAAAUUCACCUUGUUUUUGUCAGGACAGUAAAAGGCUGGAAUCUCAUGAAGUUGUUUUGGCGAGCAUUCCUCCAACAGAGGAUUGAGCAUCA
B5: 138044843_138045211_1185_CDS_ENSMUSG00000041642_ENSMUST00000075164|mouse|control|control (ssRNA)
RNA: GGGAGUUCUACAGUCCGACGAUCCAAGGCCAGCAGACCACAGUUGAUGGAGAUGCCCUCUUUGGCCCGUUCGCCGGUGGCCCCUGUCCGCUUCAGCCGCUCUGAGCCAGCCAAGUCCACGAAGUGAAACUUAGCAGUGAGAGUCAACAGAGGAUUGAGCAUCA
B6: 222898803_222900535_952_CDS_ENSG00000162819_ENST00000340934|human|control|control (ssRNA)
RNA: GGGAGUUCUACAGUCCGACGAUCUAGUUCAAUUGCUCGAGCAAUUGUUACUUCUUGAGCUUCAGCCUGACAUUGAAUAACGUAUGCUUCUAUGAGUCGUGACUCUAAAUCUCUUCCUUUUUCCGCAGGUGUAAUGAGUUUUGGCAACAGAGGAUUGAGCAUCA
B7: 89180194_89198816_634_3pUTR_ENSG00000156103_ENST00000286614|human|control|control (ssRNA)
RNA: GGGAGUUCUACAGUCCGACGAUCUCUUUAUACUGUAAGUGAUGUGCUUGUGCUGCCAUUUCUGUCCUGUCAAUGCAUAUCGCUUUCGACGAAUAUGAAAUUUGGAGCUACCUCUUGUCUGGUCAGGUACACCGCAUCGGGGCUCAACAGAGGAUUGAGCAUCA
B8: 12974608_12974966_472_CDS_ENSG00000213782_ENST00000358007|human|control|control (ssRNA)
RNA: GGGAGUUCUACAGUCCGACGAUCGUAUUUGAGAGCUCUCAAGUUGAAACCUUUCGUAUUUUCCAAGUGGUCAAUCAGUCGACCAGGAGUUGCUAUUAUUAUAUGUGGUUUUUUUGCAAGGGCCAAAGAUUGAGACAUUGAAUCCAACAGAGGAUUGAGCAUCA
B9: 25054733_25054853_448_ncRNA_ENSMUSG00000024163_ENSMUST00000126280|mouse|control|control (ssRNA)
RNA: GGGAGUUCUACAGUCCGACGAUCGGGGGCUAUCCUAAACUCACAGGUGCUAGUGUGAAGUCAAACAGAGCAGGAAGCUCGUGCAUUCUGACAUCCCAGCUCUGUUUCUGUCUCAUGUCAGGGGAUGGUAGACUAACUCAGGGACAACAGAGGAUUGAGCAUCA
B10: chr14:89327608:89327609:+_ENSG00000165533_ENST00000346301|hu_hu|FALSE|FALSE (ssRNA)
RNA: GGGAGUUCUACAGUCCGACGAUCUUCCUCAUAGAUUCUUGCAAUUCCACAGAGCAGGGUUACUUCUCCUGGAAACUUAUCUAAGCCUUGUUUGAAAAGAUUUAAAGCAGUCACAGGUUGAUCCAAUGAGACAUAAACUUUUGCCAACAGAGGAUUGAGCAUCA
B11: chr7:44244176:44244177:+_ENSG00000106636_ENST00000223369|hu_mus|hu_hu_hu_mus_False|38_98 (ssRNA)
RNA: GGGAGUUCUACAGUCCGACGAUCACUGUCGCUCCGGACGUAGACGUGGCAAAGAUACUCUUGUUCUUUGACAGAAGCUCUGCUGCCUUUCCCCGAGCGCUCCACAAUCAGUUGACUUGUAAAGGUCAUGAAUUCCUGCACACUCAACAGAGGAUUGAGCAUCA
B12: chr2:42509997:42509998:+_ENSG00000143924_ENST00000318522|hu_mus|hu_hu_hu_mus_True|28_38 (ssRNA)
RNA: GGGAGUUCUACAGUCCGACGAUCUCGCUGAGUCCUCUCCUCAUAAUUAAACAGGACUACCACUGAGGCGAUAAAAUAAACUAUCUCCCCUGUGGGAAGAAGGUAAACAUUAGCUCUACAGUCCUUUCCUCGAUAACCGUAUACCAACAGAGGAUUGAGCAUCA
B13: chr21:30248746:30248747:-_ENSG00000156239_ENST00000303775|hu_mus|FALSE|FALSE (ssRNA)
RNA: GGGAGUUCUACAGUCCGACGAUCGAGCGAUUGUUCAGCUGCCGGCAGCUCUUGUUUACUUCUGUGGCUUUCAGGACACUAGGACUUGCUGAACCUGAGGACUGACAGGGCUUCUUGGCCUGCUUGCCUGCAAAGUGCUGUGGUCAACAGAGGAUUGAGCAUCA
B14: 117632743_117632863_374_CDS_ENSMUSG00000038371_ENSMUST00000033058|mouse|control|control (ssRNA)
RNA: GGGAGUUCUACAGUCCGACGAUCGAUCUCUGCCUCAUAGAAAGUUAGACAUGAGCAGUAAUGUCGAUCUGAGUCAAUAUCUGUUAGGACCACCACAAAGAAUGUUGGCUGUUUCCGCUCUCUGGACAGGUGCCAUCCACCAGGCAACAGAGGAUUGAGCAUCA

The assay deals with T1, UNK ZnF1-3. As to the kind of experiment: nsRBNS (natural sequence RNA bind-n-seq); RBNS binding buffer (assumed for nsRBNS): 25 mM Tris pH 7.5, 150 mM KCl, 3 mM MgCl2, 0.01% Triton X-100, 500 ug/ml BSA, 20 U/ml SUPERase-In, 4 C; UNK is unkempt and MSI1 is Musashi-1; names of the RNAs are library labels; protein concentration not given here; high values mean tight binding.
Consider B1, for which the binding signal came out at 1.1 enrichment R.

On to B2, for which the binding signal was found to be 0.653 enrichment R.

Molecule B3 yielded a binding signal of 1.29 enrichment R.

In the case of B4, the binding signal amounted to 1.43 enrichment R.

In turn, B5 had a binding signal of 0.73 enrichment R.

In turn, B6 showed a binding signal of 0.681 enrichment R.

Turning to B7, the binding signal was 0.412 enrichment R.

B8 yielded a binding signal of 1.1 enrichment R.

Consider B9, for which the binding signal worked out at 1.12 enrichment R.

The molecule B10 had a binding signal of 1.21 enrichment R.

Molecule B11 showed a binding signal of 0.747 enrichment R.

The molecule B12 displayed a binding signal of 1.05 enrichment R.

The molecule B13 showed a binding signal of 0.994 enrichment R.

As to B14, the binding signal is 1.52 enrichment R.
